# Assay results taken from PMC4336329 (PLoS ONE, 2015).
# The whole screen tested about 310,000 compounds, of which about 14,000 (4.5%) showed an effect of 50% or more. Effects have a minus sign here. The list shows a part of the results.
# Molecular target: human ether-à-go-go-related gene (hERG) potassium channel (human, UniProt Q12809)
# Assay: primary screen, population patch clamp on CHO cells stably expressing hERG
# 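Further: peak tail current of the secondary pulse compared with the same well before compound.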
# Sequence of human ether-à-go-go-related gene (hERG) potassium channel (Q12809 whole entry, looked up): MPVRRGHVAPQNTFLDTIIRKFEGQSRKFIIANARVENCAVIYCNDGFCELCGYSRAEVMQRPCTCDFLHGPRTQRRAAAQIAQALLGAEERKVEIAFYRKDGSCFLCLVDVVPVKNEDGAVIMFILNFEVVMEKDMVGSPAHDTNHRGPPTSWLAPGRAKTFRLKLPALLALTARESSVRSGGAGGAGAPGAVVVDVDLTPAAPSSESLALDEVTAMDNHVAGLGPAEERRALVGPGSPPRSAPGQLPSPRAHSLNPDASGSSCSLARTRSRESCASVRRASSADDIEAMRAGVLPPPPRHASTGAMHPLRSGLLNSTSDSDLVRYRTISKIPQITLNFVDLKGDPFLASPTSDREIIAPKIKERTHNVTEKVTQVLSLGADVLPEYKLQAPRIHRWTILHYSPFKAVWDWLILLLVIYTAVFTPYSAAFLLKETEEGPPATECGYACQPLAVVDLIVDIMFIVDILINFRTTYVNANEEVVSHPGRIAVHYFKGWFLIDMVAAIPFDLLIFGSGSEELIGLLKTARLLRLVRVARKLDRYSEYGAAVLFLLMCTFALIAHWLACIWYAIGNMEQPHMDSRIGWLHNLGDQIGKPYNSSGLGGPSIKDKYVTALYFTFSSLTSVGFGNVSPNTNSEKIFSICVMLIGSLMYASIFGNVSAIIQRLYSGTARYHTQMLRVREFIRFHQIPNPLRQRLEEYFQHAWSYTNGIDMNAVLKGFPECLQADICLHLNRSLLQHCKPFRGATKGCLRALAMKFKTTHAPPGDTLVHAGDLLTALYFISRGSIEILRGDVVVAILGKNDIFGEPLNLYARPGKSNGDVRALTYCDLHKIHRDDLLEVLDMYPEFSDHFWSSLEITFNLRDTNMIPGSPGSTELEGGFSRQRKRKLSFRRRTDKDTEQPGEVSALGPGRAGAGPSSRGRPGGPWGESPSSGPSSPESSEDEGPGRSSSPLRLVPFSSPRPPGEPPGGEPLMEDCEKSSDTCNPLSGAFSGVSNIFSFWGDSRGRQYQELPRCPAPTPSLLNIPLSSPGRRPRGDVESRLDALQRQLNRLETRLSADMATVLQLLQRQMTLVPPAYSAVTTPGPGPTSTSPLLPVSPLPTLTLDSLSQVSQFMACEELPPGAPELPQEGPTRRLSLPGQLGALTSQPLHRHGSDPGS
row,SMILES,"hERG current change (%, negative = inhibition) at 10uM"
1,Cc1ccc(NC(=O)c2nnn(-c3cccc(C(F)(F)F)c3)c2N)cc1,-6.18%
2,COc1ccc2[nH]c(C)c(CCNC(=S)Nc3cc(C)ccc3C)c2c1,-8.03%
3,CC(=O)c1ccc(NC(=O)NNS(=O)(=O)c2ccc(F)cc2)cc1,12.8%
4,COC(=O)c1nn(-c2ccc(F)cc2)ccc1=O,8.12%
5,Cc1cc(C(=O)N/N=C/C=C/c2ccc([N+](=O)[O-])cc2)n[nH]1,-53%
6,Cc1ccc(-c2nc3cnccn3c2Nc2ccccc2)o1,-5.02%
7,CCOC(=O)C1=C(CC)OC(N)=C(C#N)C1c1ccc(OC)c(C)c1OC (centres unmarked),-8.95%
8,Oc1cccc(C=NCc2ccccc2)c1,8.22%
9,CCC(C)N(C)C(=O)c1cc2ccccc2c(-c2ccccc2Cl)n1 (centres unmarked),-39.3%
10,Cc1ccc(CNC(=O)COc2ccc(S(=O)(=O)N3CCCC3)cc2)cc1,24.1%
11,O=C(N/N=C/c1ccc([N+](=O)[O-])o1)c1ccc(NS(=O)(=O)c2cccs2)cc1,-12.8%
12,CCC1(c2ccccc2)NC(=O)N(CC(=O)Nc2cccc(S(=O)(=O)N3CCCC3)c2)C1=O (centres unmarked),-3.81%
13,CCOC(=O)Nc1ccc2c(c1)N(C(=O)CN)c1ccccc1CC2,-6.64%
14,Cc1ccc(NC(=O)CN2C(=O)NC3(CCc4ccccc43)C2=O)cc1Cl (centres unmarked),5.13%
15,CCOC(=O)C1(Cc2cccc(F)c2)CCN(Cc2ccc(COC)o2)CC1,-23.5%
16,CCc1ccccc1S(=O)(=O)Cc1ccc(C(=O)NCCc2ccccc2)o1,-37.5%
17,Nc1ccc(C(=O)OCC(=O)NC(=O)c2ccccc2)cc1[N+](=O)[O-],10.4%
18,COc1cc(/C=C2/C(=N)N3C(c4ccccc4)=CSC3=NC2=O)ccc1OCC(=O)O,7.9%
19,CCCOc1ccc(-c2c(C(=O)N/N=C(\C)c3cccs3)nnn2-c2nonc2N)cc1,8.59%
20,O=C(O)CCCNc1cc(N2CCN(C(=O)c3ccco3)CC2)c2noc3c2c1C(=O)c1ccccc1-3,19%
21,CC(=O)NC1CCC(C(=O)O)(c2ccccc2)C1 (centres unmarked),3.43%
22,COc1ccc(-c2csc(NC(=O)CSCc3c(C)noc3C)n2)c(OC)c1,-30.5%

row,SMILES,"hERG current change (%, negative = inhibition) at 10uM"
1,Cc1cc(C)cc(NC(=O)c2ccc3c(c2)CCN3S(C)(=O)=O)c1,-25.8%
2,COc1ccc(/C=N/Nc2nc(=O)[nH]nc2C)cc1OC,-7.15%
3,COc1ccc([N+](=O)[O-])cc1COc1ccc2c(-c3ccccc3)cc(=O)oc2c1,36.7%
4,Cc1ccc(S(=O)(=O)Cc2ccc(C(=O)N3CCN(c4ccc(F)cc4)CC3)o2)cc1,-69.5%
5,N#CCCN1CCN(S(=O)(=O)c2ccc(C#N)cc2)CC1,-10.6%
6,CCC/C(=N\NC(=O)CNC(=O)c1ccc(Cl)cc1)c1ccccc1,-1.56%
7,Cc1nnc(NC(=O)c2cc(S(=O)(=O)N3CCCCC3)ccc2Cl)s1,14.6%
8,Cc1nc(NCCN2CCOCC2)c2oc3ccccc3c2n1.Cl,-31.5%
9,COc1ccc(/C=N/NC(N)=S)cc1,-0.485%
10,CC1(C)CC(=O)C(C=Nc2ccccc2)=C(O)C1,-8.78%
11,O=C(Cc1nn[nH]n1)c1ccccc1O,13.7%
12,CN(C)CC/C=C1\c2cc(Cl)ccc2Sc2cc(F)c(F)cc21.Cl,1.25%
13,Cc1ccc(-c2n[nH]c(=S)n2/N=C/c2ccc(C)o2)cc1,8.53%
14,CCOC(=O)/C(=N/Nc1ccc(OC)cc1)N1CCCc2ccccc21,0.0791%
15,CN(C(=O)COC(=O)c1ccc(S(=O)(=O)N2CCOCC2)cc1)C1CCCCC1,-12.5%
16,O=[N+]([O-])c1ccc2ncnc(Nc3ccc4c(c3)OCCO4)c2c1,2.91%
17,COc1cc(OC)nc(NC(=O)CCl)n1,-3.8%
18,COc1ccc(-n2c(Cc3cccn3C)nnc2SCC(=O)Nc2nccs2)cc1,-9.82%
19,O=C(C1=C(O)C(=O)N(CCN2CCOCC2)C1c1ccc(Cl)cc1)c1cc2ccccc2o1 (centres unmarked),10.3%
20,O=C(/C=C(\O)c1ccccc1)C(=O)NNC(=O)c1ccccc1,8.86%
21,CC1CCCC(C)N1/N=C/c1cccc([N+](=O)[O-])c1 (centres unmarked),17.6%
22,CCc1ccccc1NC(=S)NNC(=O)c1ccccc1Cl,12.3%

row,SMILES,"hERG current change (%, negative = inhibition) at 10uM"
1,CC(C)OCCCn1c(=N)c(S(=O)(=O)c2ccccc2)cc2c(=O)n3ccccc3nc21,-43.6%
2,CC(C)OC(=O)/C(=C/c1ccc2c(c1)c1ccccc1n2C)NC(=O)c1ccccc1,-1.72%
3,CCC(C)NC(=O)c1cc(CC(C)C)on1 (centres unmarked),8.94%
4,CCCCCCCC[n+]1cccc2c3ccccc3ccc21.[I-],-84.3%
5,O=C(CF)NC(NC(=S)Nc1ccccc1O)C(Cl)(Cl)Cl (centres unmarked),34.7%
6,CN1CCN(c2ccc(S(=O)(=O)N3CCCCC3)cc2NC(=O)/C=C/c2ccc(OC(F)F)cc2)CC1,-39.2%
7,CN1CCc2ccccc2Cc2[nH]c3ccccc3c2CC1,-23.5%
8,COc1cc(C(=O)OC(C)CN2C(C)CCCC2C)cc(OC)c1OC.Cl (centres unmarked),-50.2%
9,CCOC(=O)C1(Cc2ccccc2)CCN(Cc2cnn(-c3ccccc3)c2)CC1,-81.4%
10,N=c1c(C(=O)NCCN2CCOCC2)cc2c(=O)n3ccccc3nc2n1CCCN1CCOCC1,-4.43%
11,CC(=O)Nc1cc(NC(C)=O)cc(C(=O)OCC(=O)c2ccc3c(c2)NC(=O)CO3)c1,3.64%
12,O=C(CCc1ccc(S(=O)(=O)N2CCOCC2)cc1)OCc1nc2ccccc2s1,-19.7%
13,CCc1nc2ccccc2c(C(=O)OCC(=O)NC(=O)c2cccn2C)c1C,7.02%
14,CCOC(=O)N1CCN(C(=O)CCc2cc(OC)c(OC)c(OC)c2)CC1,9.89%
15,Cc1cccc(OCC(=O)OCC(=O)c2c(N)n(C)c(=O)n(C)c2=O)c1,-13.1%
16,CCCCN(CC)CCCNC(=O)c1cn(-c2ccc(OC)cc2)c(=O)c2ccccc12,-56.5%
17,Cc1nn(CCC(=O)O)c2nc(-c3cccnc3)cc(C(F)(F)F)c12.Cl,14.2%
18,CC(C)C(NC(=O)C1CCCCC1)C(=O)Nc1ccccn1 (centres unmarked),9.08%
19,CCN1CCN(c2cc(C)c3cc(NC(=O)c4ccc(OC)c(OC)c4)ccc3n2)CC1,-46%
20,CC(C)N=C(NC#N)SCc1ccccc1F,3.93%
21,NC(=O)CC(NC(=O)Cc1cccc2ccccc12)c1ccc(NCCN2CCCCC2)c([N+](=O)[O-])c1 (centres unmarked),7.38%
22,COc1ccccc1C(=O)NC(=O)Nc1c(C)cc(C)cc1C,-2.82%

row,SMILES,"hERG current change (%, negative = inhibition) at 10uM"
1,COc1cc2c(cc1NC(=S)Nc1cccc3ccccc13)oc1ccccc12,8.07%
2,CN(C(=O)COc1ccccc1)c1nnc(C23CC4CC(CC(C4)C2)C3)s1,5.79%
3,CCOc1ccc(OCC)c(Nc2cc(C)nc3nc(C)nn23)c1,-23.8%
4,Cc1nonc1OCCNCCNc1ccccc1[N+](=O)[O-],-23.4%
5,CC(=O)Nc1ccc(NC(=O)COc2ccc(S(=O)(=O)N3CCCC3)cc2)cc1,11%
6,CCOCCCN(C(=O)c1snc(C(N)=O)c1N)C(C(=O)NC1CCCC1)c1ccc(F)cc1 (centres unmarked),-12%
7,O=Nc1c(-c2c(O)[nH]c3cc(Br)ccc23)[nH]c2ccccc12,13%
8,Cn1cccc1/C=N/N1CCN(c2ccccc2)CC1,16%
9,CC(C)[C@H](NC(=O)[C@@H]1Cc2ccccc2CN1C(=O)OC(C)(C)C)C(=O)NCC1CCC(C(=O)O)CC1 (some centres unmarked),8.54%
10,O=C(CN1c2ccccc2Sc2ccccc21)NNC(=O)Nc1ccc(Cl)c(Cl)c1,9.79%
11,CC(C)[C@H](NC(=O)c1ccccc1)C(=O)OCC(=O)N1CCc2ccccc2C1,-11.5%
12,CNC(=O)CC1C(=O)N(C)C(=S)N1NC(=O)c1ccccc1 (centres unmarked),9.36%
13,COc1ccccc1/C=N/NC(=S)NCc1ccco1,-7.47%
14,Cc1nc2cc(OCc3cc(C(=O)NC(C)c4cn(C)nc4C)no3)ccc2s1 (centres unmarked),4.16%
15,c1ccc(-c2ccc3nnnn3n2)cc1,5.72%
16,Cc1cc(C)nc(N/C(=N\S(=O)(=O)Cc2ccccc2)Nc2cccc(Cl)c2C)n1,-3.72%
17,CCCCNC(=S)N(C)N=C1CCC(c2ccccc2)CC1 (centres unmarked),8.08%
18,O=C1CCCCCN1C(=O)c1ccc(C(=O)N2CCCCCC2=O)cc1,-2.83%
19,CC(C)(C)c1ccc(OC(=O)CN2C(=O)C3C4CCC(C4)C3C2=O)cc1 (centres unmarked),4.44%
20,COc1cnc(-c2ccccn2)nc1Oc1ccc(Cl)c2ccccc12,-12.7%
